This note sets out measurements from the RNAGym collection of RNA variant scans (doi:10.1073/pnas.2313332121).

Variants at the background level are over-represented here.

First the molecules themselves.
B1: TPR 5TU (parent)
chain: GGAUCUUCUCGAUCUAACAAAAAAGACAAAUCUGCCACAAAGCUUGAGAGCAUCUUCGGAUGCAGAGGCGGCAGCCUUCGGUGGCGCGAUAGCGCCAACGUUCUCAACUAUGACACGCAAAACGCGUGCUCCGUUGAAUGGAGUUUAUCAUG

Variants of B1 are the subject of this data set. The data set can be described thus: polymerase ribozyme fitness, log enrichment relative to wild type (log ratio); higher = more active; in vitro selection for triplet polymerase activity. The method, boiled down:
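Each subunit of a heterodimeric triplet polymerase ribozyme was represented by a PCR-built, transcribed mutant library that underwent triplicate single-round in vitro selection with frozen incubation at −7 °C. Extended constructs were recovered by gel excision, streptavidin-bead capture and RT-PCR, and Illumina sequencing of input and output libraries kept genotypes with ≥10 input reads and ≥1 read per output. Fitness is the logarithm of genotype enrichment relative to wild-type enrichment, from inverse-variance-weighted replicate averages, with a logarithm base of 2.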
Regarding A21U G25U U44A C54G G92C C132G A137C, the “polymerase ribozyme fitness (log ratio)” value is at most -4.2.
On to A22C A49C G58C G94C A98G C105G, for which the “polymerase ribozyme fitness (log ratio)” value is at most -4.2.
For the variant A21U C51U C93G C105U A120G, the “polymerase ribozyme fitness (log ratio)” value was -3.58.
The value for A21U C85A A97U was -2.01.
The value for A22C A39C U55A U102G C129U was at most -4.2; that for A21U G67A U102G G117A G124U was at most -4.2.
The value for A21U C43U G84A C87U G88A A119C C131A U145A was at most -4.2.
Turning to A21U C35G U82G A91G C99U C116A C118U C149U, the “polymerase ribozyme fitness (log ratio)” value is at most -4.2.
As for A21U C63U G84A, the “polymerase ribozyme fitness (log ratio)” value is -0.545.
The value for A21U G42A C85U C131U U135A G136C U148C U151G was at most -4.2; that for A22C A107U U111C G143C U151G was at most -4.2; that for A21U C85U C131U U145G U151A was at most -4.2.
The value for A21U G92A U134A was at most -4.2; that for A21U G34A A91G was at most -4.2; that for A22C C36U U61A C87U A97C C108U A121U A122U was at most -4.2.
As for A21U G25C U56A C85U C108A U134A, the figure is at most -4.2; as for A22C A26G G50C C54U C75U G92A A150G, at most -4.2; as for A22C A23G G62A A91G A98U C114A U146A, at most -4.2.
Consider A22C C27G G94C, for which the “polymerase ribozyme fitness (log ratio)” value is at most -4.2.
As for A22C C32U C85G C95A G100A G112C, the figure is at most -4.2.
As to A22C A28U G58A A66U C99U U104G, the “polymerase ribozyme fitness (log ratio)” value was at most -4.2.
As for A21U G71A C95U A97C U144G, the figure is at most -4.2.
The value for A21U U61A G88A was at most -4.2; that for A21U C105G A113G C116U was -4.07; that for A21U C96U C108U C132A was at most -4.2.
For the variant A22C A121U, the “polymerase ribozyme fitness (log ratio)” value was -0.324.
The value for A21U C51U C76A C87U A138C was at most -4.2.
Turning to A21U C54U C85G A89U U90C A119U A122U C131A, the “polymerase ribozyme fitness (log ratio)” value was at most -4.2.
The value for A22C C51A C93G A98C C116U U135C was at most -4.2; that for A22C A40U A52C G81U A89U G92C G94A C95A A121U was at most -4.2.
As for A22C C36A U56A A60C C87A, the figure is at most -4.2; as for A21U G83U G94C C99G, at most -4.2.
The value for A21U C57U C93G was -3.29; that for A21U G71U A91G U148C was at most -4.2.
For the variant A21U C51U G126U, the “polymerase ribozyme fitness (log ratio)” value was found to be 0.375.
As for A22C A29C C76U C95A A97U U148G, the figure is at most -4.2; as for A21U G83C C95U, -1.58; as for A22C A24U G50C G58A C93U G94U, at most -4.2.
As for A22C C27U A29G C87U A97C A110C, the figure is at most -4.2; as for A21U U55A C99G C108A G133U A142U, at most -4.2; as for A22C C32U U53A C72G G83C G94A A106G G133C, at most -4.2.
The value for A22C A52C U56A A66G G83C G86U U102C U134A A137G was at most -4.2.
With A22C C51U C79G U82C G92A, the “polymerase ribozyme fitness (log ratio)” value is at most -4.2.
As for A22C C32U C85G, the figure is at most -4.2.
The value for A22C A47C A73U G83U G84A C95U C103G C116U G140C was at most -4.2.
The value for A22C C35U G42C C57G C95A A97C U101G G152A was at most -4.2.
Consider A21U U44A, for which the “polymerase ribozyme fitness (log ratio)” value is at most -4.2.
As for A22C A28U G62A G65C U90A C99U C108U C116G, the figure is at most -4.2; as for A22C A49C C125A, at most -4.2; as for A22C A28G G88C G117C C149U, at most -4.2.
The value for A21U G34A G83C was -2.46.
As for A22C A23G A49C A66G A113U, the figure is at most -4.2.
Consider A21U U53A C87U U145C U151A, for which the “polymerase ribozyme fitness (log ratio)” value is at most -4.2.
As for A22C C32G C43G G92A C114U C118G U139A, the figure is at most -4.2; as for A22C A47C A49C A52U G88U C118U, at most -4.2.
As for A22C C35A C57A A60U C93U A120U, the figure is at most -4.2; as for A21U G92A A115U G124U U144A, at most -4.2.
The value for A22C C54A G88U C96G A98U G152U was at most -4.2.
As to A21U G86C A97U C123U G133U, the “polymerase ribozyme fitness (log ratio)” value was at most -4.2.
Regarding A22C C69G G70C C85G, the “polymerase ribozyme fitness (log ratio)” value was at most -4.2.
The value for A21U G58C U61G A97U A120C C131G was at most -4.2.
The value for A22C C27U A52C was -2.64; that for A22C A52G A106C C118U A142G was -3.06.
As for A21U C79U C93G, the figure is at most -4.2.
With A22C A24G C76G, the “polymerase ribozyme fitness (log ratio)” value is at most -4.2.
As for A21U U55A C93G A97U A115U, the figure is at most -4.2; as for A22C C79G C95A G143C A150G, at most -4.2.
The value for A21U C76G was at most -4.2.
As for A21U G50A G92C A97G C123A U134G, the figure is at most -4.2.
As to A22C A29U A64U G70A G81A G84A, the “polymerase ribozyme fitness (log ratio)” value is at most -4.2.
The value for A22C A29U G58C C63U G124U U148C was at most -4.2; that for A21U G80A was -0.249; that for A22C A29C C57U was at most -4.2.
The value for A22C A39C U53A C69A G84U G126C was at most -4.2; that for A22C A40G U44C C57G G68A U104A was at most -4.2; that for A21U U44A C93G G94C was at most -4.2.
As for A21U G70C U139G, the “polymerase ribozyme fitness (log ratio)” value is at most -4.2.
As for A22C C43U C75A C87U G128U, the figure is at most -4.2; as for A21U G136U, -2.65.
The value for A22C A28G G83A G141U was at most -4.2; that for A22C C75A C87A was at most -4.2.
As for A21U G84U, the figure is -1.29; as for A21U U45G U55A A91U C125U C131G, at most -4.2.
